Data reported in the supplement of paper PMC8728848.
Some of the results follow.

Assays:
Assay in all cases: glycan array binding signal (z-score within array); higher = stronger binding
Conditions in all cases: glycan notation: IUPAC condensed, linker removed
[1] = target: Fuc(a1-3)GlcNAc
Method in brief: (§1)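 Columns mapping to the same glycan were averaged after glycan names were converted to IUPAC-condensed notation. The data come from 3228 arrays in the Consortium for Functional Glycomics database, limited to those with an available protein sequence. Binding is reported as a within-array Z-score averaged across arrays of one protein sequence and across linkers.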

[2] = target: Fuc(a1-3)[Gal(b1-4)]Glc6S
Method in brief: as §1

[3] = target: Fuc(a1-3)[Gal(b1-4)]GlcNAc
Method in brief: as §1

[4] = target: Fuc(a1-3)[Gal(b1-4)]GlcNAc(b1-2)Man
Method in brief: as §1

[5] = target: Fuc(a1-3)[Gal(b1-4)]GlcNAc(b1-2)Man(a1-3)[Fuc(a1-3)[Gal(b1-4)]GlcNAc(b1-2)Man(a1-6)]Man(b1-4)GlcNAc(b1-4)GlcNAc
Method in brief: as §1

[6] = target: Fuc(a1-3)[Gal(b1-4)]GlcNAc(b1-2)Man(a1-3)[Fuc(a1-3)[Gal(b1-4)]GlcNAc(b1-2)Man(a1-6)]Man(b1-4)GlcNAc(b1-4)[Fuc(a1-6)]GlcNAc
Method in brief: as §1

[7] = target: Fuc(a1-3)[Gal(b1-4)]GlcNAc(b1-3)Gal(b1-3)[Fuc(a1-4)]GlcNAc
Method in brief: as §1

[8] = target: Fuc(a1-3)[Gal(b1-4)]GlcNAc(b1-3)Gal(b1-4)[Fuc(a1-3)]GlcNAc
Method in brief: as §1

[9] = target: Fuc(a1-3)[Gal(b1-4)]GlcNAc(b1-3)Gal(b1-4)[Fuc(a1-3)]GlcNAc(b1-3)Gal(b1-4)[Fuc(a1-3)]GlcNAc
Method in brief: as §1

[10] = target: Fuc(a1-3)[Gal(b1-4)]GlcNAc(b1-3)GalNAc
Method in brief: as §1

[11] = target: Fuc(a1-3)[Gal(b1-4)]GlcNAc(b1-6)GalNAc
Method in brief: as §1

[12] = target: Fuc(a1-3)[Gal(b1-4)]GlcNAc(b1-6)[Gal(b1-3)GlcNAc(b1-3)]Gal(b1-4)Glc
Method in brief: as §1

[13] = target: Fuc(a1-3)[Gal(b1-4)]GlcNAc6S
Method in brief: as §1

[14] = target: Fuc(a1-3)[Gal3S(b1-4)]Glc
Method in brief: as §1

[15] = target: Fuc(a1-3)[Gal3S(b1-4)]GlcNAc
Method in brief: as §1

[16] = target: Fuc(a1-3)[Gal3S(b1-4)]GlcNAc6S
Method in brief: as §1

[17] = target: Fuc(a1-3)[GalNAc(b1-4)]GlcNAc
Method in brief: as §1

[18] = target: Fuc(a1-3)[GalNAc(b1-4)]GlcNAc6S
Method in brief: as §1

[19] = target: Fuc(a1-4)GlcNAc
Method in brief: as §1

[20] = target: Fuc(b1-3)GlcNAc
Method in brief: as §1

[21] = target: Gal(a1-2)Gal
Method in brief: as §1

[22] = target: Gal(a1-3)Gal
Method in brief: as §1

[23] = target: Gal(a1-3)Gal(b1-3)GlcNAc
Method in brief: as §1

[24] = target: Gal(a1-3)Gal(b1-3)GlcNAc(b1-2)Man
Method in brief: as §1

[25] = target: Gal(a1-3)Gal(b1-3)GlcNAc(b1-2)Man(a1-3)[Gal(a1-3)Gal(b1-3)GlcNAc(b1-2)Man(a1-6)]Man(b1-4)GlcNAc(b1-4)GlcNAc
Method in brief: as §1

[26] = target: Gal(a1-3)Gal(b1-3)GlcNAc(b1-3)GalNAc
Method in brief: as §1

[27] = target: Gal(a1-3)Gal(b1-3)GlcNAc(b1-6)GalNAc
Method in brief: as §1

[28] = target: Gal(a1-3)Gal(b1-3)[Fuc(a1-4)]GlcNAc(b1-2)Man(a1-3)[Gal(a1-3)Gal(b1-3)[Fuc(a1-4)]GlcNAc(b1-2)Man(a1-6)]Man(b1-4)GlcNAc(b1-4)GlcNAc
Method in brief: as §1

[29] = target: Gal(a1-3)Gal(b1-4)Glc
Method in brief: as §1

[30] = target: Gal(a1-3)Gal(b1-4)GlcNAc
Method in brief: as §1

[31] = target: Gal(a1-3)Gal(b1-4)GlcNAc(b1-2)Man
Method in brief: as §1

[32] = target: Gal(a1-3)Gal(b1-4)GlcNAc(b1-2)Man(a1-3)[Gal(a1-3)Gal(b1-4)GlcNAc(b1-2)Man(a1-6)]Man(b1-4)GlcNAc(b1-4)GlcNAc
Method in brief: as §1

[33] = target: Gal(a1-3)Gal(b1-4)GlcNAc(b1-3)GalNAc
Method in brief: as §1

[34] = target: Gal(a1-3)Gal(b1-4)GlcNAc(b1-6)GalNAc
Method in brief: as §1

[35] = target: Gal(a1-3)Gal(b1-4)[Fuc(a1-3)]GlcNAc
Method in brief: as §1

[36] = target: Gal(a1-3)Gal(b1-4)[Fuc(a1-3)]GlcNAc(b1-2)Man(a1-3)[Gal(a1-3)Gal(b1-4)[Fuc(a1-3)]GlcNAc(b1-2)Man(a1-6)]Man(b1-4)GlcNAc(b1-4)GlcNAc
Method in brief: as §1

[37] = target: Gal(a1-3)GalNAc
Method in brief: as §1

[38] = target: Gal(a1-3)[Gal(a1-4)]Gal(b1-4)GlcNAc
Method in brief: as §1

[39] = target: Gal(a1-4)Gal(b1-3)GlcNAc(b1-2)Man(a1-3)[Gal(a1-4)Gal(b1-3)GlcNAc(b1-2)Man(a1-6)]Man(b1-4)GlcNAc(b1-4)GlcNAc
Method in brief: as §1

[40] = target: Gal(a1-4)Gal(b1-4)Glc
Method in brief: as §1

[41] = target: Gal(a1-4)Gal(b1-4)GlcNAc
Method in brief: as §1

[42] = target: Gal(a1-4)Gal(b1-4)GlcNAc(b1-2)Man(a1-3)[Gal(a1-4)Gal(b1-4)GlcNAc(b1-2)Man(a1-6)]Man(b1-4)GlcNAc(b1-4)GlcNAc
Method in brief: as §1

[43] = target: Gal(a1-4)Gal(b1-4)GlcNAc(b1-3)Gal(b1-4)Glc
Method in brief: as §1

[44] = target: Gal(a1-4)GlcNAc
Method in brief: as §1

[45] = target: Gal(a1-6)Glc
Method in brief: as §1

[46] = target: Gal(b1-2)Gal
Method in brief: as §1

[47] = target: Gal(b1-3)Gal
Method in brief: as §1

[48] = target: Gal(b1-3)Gal(b1-4)GlcNAc
Method in brief: as §1

[49] = target: Gal(b1-3)GalNAc
Method in brief: as §1

[50] = target: Gal(b1-3)GalNAc(a1-3)[Fuc(a1-2)]Gal(b1-4)Glc
Method in brief: as §1

[51] = target: Gal(b1-3)GalNAc(a1-3)[Fuc(a1-2)]Gal(b1-4)GlcNAc
Method in brief: as §1

[52] = target: Gal(b1-3)GalNAc(b1-3)Gal
Method in brief: as §1

[53] = target: Gal(b1-3)GalNAc(b1-3)Gal(a1-4)Gal(b1-4)Glc
Method in brief: as §1

[54] = target: Gal(b1-3)GalNAc(b1-4)Gal(b1-4)Glc
Method in brief: as §1

[55] = target: Gal(b1-3)GalNAc(b1-4)[Neu5Ac(a2-3)]Gal(b1-4)Glc
Method in brief: as §1

[56] = target: Gal(b1-3)GlcNAc
Method in brief: as §1

[57] = target: Gal(b1-3)GlcNAc(a1-3)Gal(b1-4)GlcNAc
Method in brief: as §1

[58] = target: Gal(b1-3)GlcNAc(a1-6)Gal(b1-4)GlcNAc
Method in brief: as §1

[59] = target: Gal(b1-3)GlcNAc(b1-2)Man
Method in brief: as §1

[60] = target: Gal(b1-3)GlcNAc(b1-2)Man(a1-3)[Gal(b1-3)GlcNAc(b1-2)Man(a1-6)]Man(b1-4)GlcNAc(b1-4)GlcNAc
Method in brief: as §1

B1: BT3172pd (Bacteroides thetaiotaomicron) (protein)
chain: MLPLRAEHYYYKQISLKEGLPSNVRCILRDEQGFIWIGTKAGLGKFDGHQLKRYKHQANDPHSLLHNLIYQIAEDKQHNIWILTEKGIARYQQQSNNFTFPTDEEGNYITAYSFCLVPDGILFGGKDRIYKYSYKDSSLRLLQYFNANSFKITALSVWDSKTLLCCSRWTGLYLVDLQTGEHRRPPFDCGPEITSMITDSKNRIWIAPYSGGLRCYSRDGKLSASYTTHNSSLSNDIVLSLAEREEQLWIGTDGGGINILHPETGEISQLEYIPGRENYSLPANSILCLHNDYNNNVWAGSTCNGLISIREVSMKTYTDVVPGNDRGLSNGTVRSLYRQSPDSIWIGTDGGGINLFSPHTEKFTHYSSTWGDKVAFISGFTPGKLLISLFSKGVFVFNPATGEKQPFTIIDKETTTRLCNRGKSVNLYQNTPNTVLFLGDHIYQYHLKEKKFSTITEEEGKDIVGTLVPFDHQENLTYINDIKHIYELDDQTSRLKTVFECYTDTVISSVSHDEQGHFWIGSNFGLIHYDPVLKSRTLVPTNLFTEINMVLCDQKGKVWIGVDNMLFAYFIKEQKFVLFGESNGAIQNEYLPNARLVNEQGDAYIGGVKGMLRIDGQLLLNTSEMPELQLLDITINGESANHEWYNHPAKISVPWNSNISIRIMSREEDIFRQKIYRYQIEGLNNEYTESYNPELVIRSLLPGSYRIMASCTAKDGSWIPDQQVLELTVLPPWYRTHHHHHH
[1]
  glycan array binding signal (z-score): -0.076
[2]
  glycan array binding signal (z-score): 0.702
[3]
  glycan array binding signal (z-score): 0.622
[4]
  glycan array binding signal (z-score): -0.76
[5]
  glycan array binding signal (z-score): 0.229
[6]
  glycan array binding signal (z-score): 2.04
[7]
  glycan array binding signal (z-score): -0.542
[8]
  glycan array binding signal (z-score): -0.266
[9]
  glycan array binding signal (z-score): -0.472
[10]
  glycan array binding signal (z-score): 0.349
[11]
  glycan array binding signal (z-score): -0.071
[12]
  glycan array binding signal (z-score): -0.978
[13]
  glycan array binding signal (z-score): 0.918
[14]
  glycan array binding signal (z-score): 0.036
[15]
  glycan array binding signal (z-score): -0.009
[16]
  glycan array binding signal (z-score): -0.205
[17]
  glycan array binding signal (z-score): 0.074
[18]
  glycan array binding signal (z-score): -0.042
[19]
  glycan array binding signal (z-score): 0.252
[20]
  glycan array binding signal (z-score): -0.336
[21]
  glycan array binding signal (z-score): -0.237
[22]
  glycan array binding signal (z-score): -0.624
[23]
  glycan array binding signal (z-score): -0.655
[24]
  glycan array binding signal (z-score): 1.83
[25]
  glycan array binding signal (z-score): -0.542
[26]
  glycan array binding signal (z-score): 0.41
[27]
  glycan array binding signal (z-score): -0.133
[28]
  glycan array binding signal (z-score): 0.822
[29]
  glycan array binding signal (z-score): -0.327
[30]
  glycan array binding signal (z-score): -0.339
[31]
  glycan array binding signal (z-score): -0.075
[32]
  glycan array binding signal (z-score): -0.172
[33]
  glycan array binding signal (z-score): -0.017
[34]
  glycan array binding signal (z-score): -0.148
[35]
  glycan array binding signal (z-score): -0.344
[36]
  glycan array binding signal (z-score): 2.4
[37]
  glycan array binding signal (z-score): -0.02
[38]
  glycan array binding signal (z-score): 2.39
[39]
  glycan array binding signal (z-score): -0.406
[40]
  glycan array binding signal (z-score): 0.225
[41]
  glycan array binding signal (z-score): -0.091
[42]
  glycan array binding signal (z-score): 0.102
[43]
  glycan array binding signal (z-score): 0.357
[44]
  glycan array binding signal (z-score): -0.146
[45]
  glycan array binding signal (z-score): 0.025
[46]
  glycan array binding signal (z-score): -0.165
[47]
  glycan array binding signal (z-score): 0.26
[48]
  glycan array binding signal (z-score): 0.133
[49]
  glycan array binding signal (z-score): -0.494
[50]
  glycan array binding signal (z-score): -0.543
[51]
  glycan array binding signal (z-score): -0.781
[52]
  glycan array binding signal (z-score): 1.89
[53]
  glycan array binding signal (z-score): -0.415
[54]
  glycan array binding signal (z-score): 0.005
[55]
  glycan array binding signal (z-score): -0.01
[56]
  glycan array binding signal (z-score): 0.277
[57]
  glycan array binding signal (z-score): -0.578
[58]
  glycan array binding signal (z-score): -0.458
[59]
  glycan array binding signal (z-score): 0.03
[60]
  glycan array binding signal (z-score): -0.433
